Reference: PubChem BioAssay AID485344 (National Center for Advancing Translational Sciences (NCATS), 2010)
Hit rate of the full screen: of about 340,000 compounds, about 6,900 (2%) were called active. Cut-off read from the data, not from the text of the source: active = inhibition above about 30%; inactive = below that, where a call was filed. The list shows a part of the results, in another mix than the full data. Entries without a call were filed so in the source.

What follows are compounds tested against D(2) dopamine receptor (Homo sapiens) (UniProt P14416) (assay: HTS Assay for Allosteric Antagonists of the Human D2 Dopamine Receptor: Primary Screen for Antagonists). Details: HEK293 TREx D2 cells, calcium flux, dopamine EC80; at 10 µM; stronger effect = higher value.
Chain of UniProt P14416 (P14416 whole entry, looked up): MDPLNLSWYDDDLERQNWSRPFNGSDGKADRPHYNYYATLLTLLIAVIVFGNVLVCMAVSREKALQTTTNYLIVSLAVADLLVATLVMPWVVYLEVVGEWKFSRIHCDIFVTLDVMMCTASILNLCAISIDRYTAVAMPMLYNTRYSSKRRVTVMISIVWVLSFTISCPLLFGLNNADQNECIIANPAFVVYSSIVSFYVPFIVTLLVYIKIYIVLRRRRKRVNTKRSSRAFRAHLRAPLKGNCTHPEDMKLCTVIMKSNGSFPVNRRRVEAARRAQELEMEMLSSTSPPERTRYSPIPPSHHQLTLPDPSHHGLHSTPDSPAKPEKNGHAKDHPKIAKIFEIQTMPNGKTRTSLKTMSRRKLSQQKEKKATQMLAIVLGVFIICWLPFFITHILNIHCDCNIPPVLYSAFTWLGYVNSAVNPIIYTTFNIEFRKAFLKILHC
Outline: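 Calcium flux kinetic readout in an inducible HEK293 TREx D2 line plated overnight at 30 C. After 180 s compound exposure, an EC80 dopamine challenge follows with another 180 s kinetic read to detect antagonism.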
Note: 0% is about no effect.

SMILES	inhibition
CCC(CC)C(=O)Nc1ccc(S(=O)(=O)N2CCC(c3nc4ccccc4s3)CC2)cc1	0.61%
Cc1nc(-c2ccc(S(=O)(=O)N3CCN(c4ccccc4F)CC3)cc2)co1	3.36%
Cc1ccccc1NC(=O)c1sc2nc(-c3cc4ccccc4oc3=O)[nH]c(=O)c2c1C	-0.0653%
CCN(C(=O)Cn1c(C(=O)OC)cc2sccc21)c1cccc(C)c1	-5.04%
CCCn1cc(S(=O)(=O)c2ccc(C)c(C)c2)c(=O)c2cc(F)c(N3CCCCC3)cc21	9.37%
CC(C)NC(=O)c1ccc(CSc2nc3ccncc3n2Cc2cccc(F)c2)cc1	2.34%
Cc1ccc(-c2nc3sc(CCNC(=O)c4ccc(F)c(F)c4)c(C)n3n2)cc1	-7.98%
CCCCC12CN3CC(C)(CN(C1)C3c1ccc(OCc3ccccc3)cc1)C2=O (stereo not drawn)	8.31%
CC1=C(C(=O)Nc2ccccc2Br)C2(CCC(C)CC2)OC1=O (stereo not drawn)	-3.42%
O=C(C1CCN(S(=O)(=O)c2cccs2)CC1)N1CCN(c2ccccc2F)CC1	17.4%
Cc1ccc(CNC(=O)CCCCCn2c(=O)c3sccc3n(CC(=O)N3CCCCC3C)c2=O)cc1 (stereo not drawn)	-0.228%
COc1cccc(CNC(=O)CN2C(=O)COc3ccc(S(=O)(=O)N4CCCCC4)cc32)c1	24.2%
CCN(CC)c1ccc(CN(C(=O)c2cc(=O)c3ccccc3o2)C2CCS(=O)(=O)C2)cc1 (stereo not drawn)	9.43%
Cc1nn(Cc2ccc(F)cc2)c(C)c1NC(=O)c1noc2c1CCc1ccccc1-2	-8.7%
CCn1cc2nc(SCc3cc(C)ccc3C)n(Cc3ccc(Cl)cc3)c(=O)c2n1	-3.86%
CCOC(=O)c1ccc(NC(=O)Cc2noc3ccc(C)cc23)cc1	-2.66%
Cn1cc(S(=O)(=O)N2CCCC2)cc1C(=O)Nc1ccc(F)cc1F	14.6%
CC(C)c1ccc(C2CC(=O)N3CN(C4CCCCC4)CSC3=C2C#N)cc1 (stereo not drawn)	6.37%
CC(C)Oc1cccc(C(=O)Nc2ccccc2N2CCOCC2)c1	active: 33.4%
Cc1ccccc1-c1nc(CNC(=O)NC2CCCCC2)c(C)o1	13%
Cn1ccc2cc(S(=O)(=O)N3CCCC(C(=O)NCc4ccccc4F)C3)ccc21 (stereo not drawn)	-14.7%
CC1=C(C(=O)Nc2ccccc2)C(c2ccc(Br)cc2)n2nc(CCCO)nc2N1 (stereo not drawn)	-0.31%
COc1ccc(-n2ncc3c2ncn2nc(-c4ccc(OC)c(OC)c4)nc32)cc1	0.871%
Cc1ccc(F)cc1NC(=O)CCOc1ccccc1	active: 31.6%

SMILES	inhibition
CCCc1cc(=O)[nH]c(Nc2cc(Cl)cc(Cl)c2)n1	-6.49%
COc1ccccc1N1CCN(C(=O)c2nn(C)c3c2CS(=O)(=O)c2ccccc2-3)CC1	24.4%
Cc1ccc(NC(=O)/C(C#N)=C(\N)C(Cl)(Cl)Cl)nc1	active: 32.5%
CCc1nnc(NC(=O)CSc2nnc(-c3ccncc3)n2Cc2ccccc2)s1	active: 30.7%
N#Cc1nc(/C=C/c2ccc(F)cc2)oc1N1CCCCCC1	-5.52%
COc1cccc(-n2c(SCC(=O)Nc3ccc4c(c3)OCO4)nc3c([nH]c4ccccc43)c2=O)c1	21.6%
Cc1cc(NC(=O)CCN2CCC(C)CC2)ccc1Br	active: 39.1%
CCc1c(C)sc(NC(=O)c2cc3nc(-c4ccc(OC)cc4)cc(C(F)(F)F)n3n2)c1C(=O)OC	14.8%
COc1ccc(-n2nc(C(=O)Nc3cc(C)c(Cl)cc3OC)c3c4ccccc4n(C)c3c2=O)cc1	-2.55%
Cc1ccccc1NC(=O)CSc1nc(-c2cccs2)nc2cc(=O)[nH]n12	7.65%
COC(=O)c1ccccc1NC(=O)c1ccc2c(c1)CCN2S(=O)(=O)c1ccc(Cl)cc1	6.51%
Cc1cc(C)c(S(=O)(=O)NCC2CCC(C(=O)NCCc3ccccc3)CC2)c(C)c1 (stereo not drawn)	3.3%
Cc1ccc(-c2c3c(=O)n(C)c(=O)n(C)c3c3c(-c4cccc(C)c4)nc4ccccc4n23)cc1	6.16%
Cc1ccc(C)c(Cn2c3ccccc3c3cnn(CC(=O)NC4CCCCCC4)c(=O)c32)c1	2.98%
O=S(=O)(c1cccc(Cl)c1)n1c(/C=C/c2ccccc2Cl)nc2ccccc21	-26%
Cc1c(Cl)cccc1NC(=O)CSc1nc(=O)[nH]c2c1CCC2	1.2%
Cc1c2cnn(-c3ccccc3)c(=O)c2c(C)n1CCCC(=O)Nc1cccc(F)c1	-7.45%
O=c1n(Cc2ccccc2)nc2n1-c1cc(Cl)ccc1OC2	-12%
COc1ccc(-c2cc(OC(=O)c3cccc(Cl)c3)c3c(C)oc(C)c3c(=O)c2)cc1OC	-2.32%
COc1ccc(CN(Cc2ccco2)C(=O)COc2ccccc2Cl)cc1	-3.84%
COc1ccc(NC(=O)c2cc(S(=O)(=O)N3CCCC(C)C3)cn2C)c(OC)c1 (stereo not drawn)	-3.65%
COc1ccc(NC(=O)CSc2nc3ccccc3n2CC(=O)N(C)C2CCCCC2)cc1	7.43%
Cc1cc(Cl)ccc1NS(=O)(=O)c1c(C(=O)N2CCCCCC2)c(C)n(C)c1C	-4.88%
COc1cc(C2c3c(-c4cc(C)ccc4O)n[nH]c3C(=O)N2Cc2ccco2)cc(OC)c1OC (stereo not drawn)	-8.24%
